Laboratory results reported in PubChem BioAssay AID1345083 (National Center for Advancing Translational Sciences (NCATS), 2018).
The campaign covered roughly 94,000 compounds. About 6,200 (6.6%) were called active. The inconclusive results got no clear call from the source; some entries with a clear call stand among them for comparison. Calls follow the shape of the dose curve; as a rule, active = well fitted inhibition curve with a large enough effect; inconclusive = small, poorly fitted or top-dose-only effect; inactive = flat fitted curve, though single readings scatter. A potency beside an inconclusive call is a rough fit, not a confirmed value.
Potency is read from the fitted curve at half-maximal effect; tags tell the direction and shape of the fitted curve.

Test: Cytotoxic Profiling in HEK 293 Cell Line of Diverse Libraries Using Quantitative High-Throughput Screening; also: nearly all actives have a fitted effect of over 60% in size
Details: HEK 293 viability, ATP luminescence (CellTiter-Glo), 48-72 h; series mostly up to 115 µM
Method in brief: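 qHTS cytotoxicity; HEK 293, 250 cells/well; compound pinned; 48 or 72 hr, 37 degree Celsius, 5% CO2, 95% humidity; CellTiter-Glo, 10 min RT; luminescence (ATP).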
For `CN1CCCCCC(O)c2cc(C(=O)NCc3ccc(F)cc3)ccc21` (centres undefined), the Potency was inconclusive: 89.1 µM [inhibitor, partial curve, poor fit].
For `Cc1ccc(NC(=O)CCC2CCN(C(=O)c3ccccc3F)CC2)cc1`, the Potency was inconclusive: 50.1 µM [inhibitor, partial curve, poor fit].
In the case of `Cc1ccc(CNC(=O)Cn2c(N(C)Cc3ccccc3)nc(C)cc2=O)cc1`, the Potency is reported as inconclusive: 56.2 µM [inhibitor, partial curve, poor fit].
For `COc1ccc(Nc2ccnc(N3CCC(NC(=O)c4ccccc4C)CC3)n2)cc1`, the Potency was active: 39.8 µM.
In the case of `O=C(C[C@@H]1CCNC[C@@H]1Cc1cc(CC2CCCCC2)on1)NCc1ccccc1`, the Potency is reported as inconclusive: 20 µM [inhibitor, full curve, poor fit].
In the case of `C=CCOC(=O)C1=C(C)N=C2SC=C(CC(=O)NCC(C)C)N2C1c1ccccc1Cl` (centres undefined), the Potency is reported as inconclusive: 31.6 µM [inhibitor, partial curve, poor fit].
In the case of `O=C(NCc1ccccc1)c1nc2sccn2c1-c1cccc(C(F)(F)F)c1`, the Potency is reported as “inactive”.
In the case of `c1cncc(-c2noc(CCc3nc(C4CCOC4)no3)n2)c1` (centres undefined), the Potency is reported as “inactive”.
In the case of `CCCc1cc(-c2nc3c([nH]2)CC(c2ccccc2OC)CNC3=O)on1` (centres undefined), the Potency is reported as inconclusive: 14.1 µM [inhibitor, full curve, poor fit].
For `CCOc1ccccc1C(=O)NCc1nnc2ccc(-c3ccc(C)cc3)nn12`, the Potency was inconclusive: 5.62 µM [inhibitor, full curve, poor fit].
With `Cc1nc2c(c(-c3ccc(O)cc3)n1)CN(C(=O)c1ccccc1C)CC2` the Potency was “inactive”.
With `COc1ccccc1Nc1ccnc(N2CCC(C(=O)NCC3CC3)CC2)n1` the Potency was inconclusive: 39.8 µM [inhibitor, partial curve].
In the case of `COc1ccc(OCC2(C)COc3ccc(C(=O)Nc4ccn(C)n4)cc3N2)cc1` (centres undefined), the Potency is reported as inconclusive: 50.1 µM [inhibitor, partial curve, poor fit].
With `COc1cccc([S+](=O)([O-])N2CCC(C(=O)N3CCC(N4CCOC4=O)CC3)CC2)c1` the Potency was “inactive”.
With `O=C(NCc1ccc2c(c1)OCO2)C1(c2ccc(Cl)cc2)CCOCC1` the Potency was inconclusive: 44.7 µM [inhibitor, partial curve, poor fit].
In the case of `O=C(c1cc(F)ccc1F)N1CCC2(CC1)CC(N(Cc1ccccc1)C1CC1)CCO2` (centres undefined), the Potency is reported as inconclusive: 35.5 µM [inhibitor, partial curve, poor fit].
For `COCC(=O)N1CC[C@@H]2[C@H]1C(=O)N(c1ccc(OC)cc1)C(=O)N2Cc1ccccc1`, the Potency was “inactive”.
In the case of `CC(=O)N1CCO[C@@H](COc2ccccn2)[C@@H]1c1ccccc1`, the Potency is reported as “inactive”.
With `Cc1ccccc1-c1[nH]nc2ncc(-c3cnn(C)c3)nc12` the Potency was inconclusive: 126 µM [inhibitor, partial curve, poor fit].
For `COc1ccc(F)cc1-c1ccc(CN2CCC(N[S+](=O)([O-])c3ccc(NC(C)=O)cc3)C2)cc1` (centres undefined), the Potency was active: 14.1 µM.
In the case of `O=C(NCc1ccc2c(c1)OCO2)C1CCN(c2nccc(Nc3ccccc3Cl)n2)CC1`, the Potency is reported as active: 28.2 µM.
With `CCOc1ccc(NC(=O)C2CCN(C(=O)c3ncn4c3COC(c3ccccc3)C4)CC2)cc1` (centres undefined) the Potency was “inactive”.
For `CN(C)[C@H]1CCCCN(C(=O)c2cccc(-c3cccc(F)c3)c2)C1`, the Potency was inconclusive: 89.1 µM [inhibitor, single point].
For `O=C(c1cc(F)cc(F)c1)N1CCC(c2n[nH]c(=O)n2-c2ccccc2)CC1`, the Potency was “inactive”.
With `COc1cccc(NC(=O)CCC2CCN(C(=O)c3cnc(C)[nH]c3=O)CC2)c1` the Potency was “inactive”.
In the case of `Cc1ccccc1C(=O)N1CCC2(CC1)CN(c1ncccn1)CC2CO` (centres undefined), the Potency is reported as “inactive”.
In the case of `O=C(CCC1CCCC1)NCc1nnc2cc(-c3nc(C4CC4)no3)ccn12`, the Potency is reported as “inactive”.
In the case of `Cc1c(-c2ccc(F)cc2)[nH]c2ccc(CNCc3cnn(C)c3)cc12`, the Potency is reported as active: 39.8 µM.
For `CCC(=O)N(C1CCOCC1)C1CCN(S(=O)(=O)c2ccc(Cl)c(C)c2)CC1`, the Potency was inconclusive: 50.1 µM [inhibitor, partial curve, poor fit].
With `COCc1nc(-c2ccc(OC3CN(C(=O)C(C)Oc4ccccc4)C3)cc2)no1` (centres undefined) the Potency was active: 39.8 µM.
For `COCCN1CCCCCC(O)c2cc(C(=O)N(C)CCCc3c(C)nn(C)c3C)ccc21` (centres undefined), the Potency was inconclusive: 50.1 µM [inhibitor, partial curve, poor fit].
With `Cc1nc(CN2C(=O)OC3(CCN(CCCc4ccccc4)CC3)C2(C)c2ccccc2)cs1` (centres undefined) the Potency was inconclusive: 50.1 µM [inhibitor, partial curve, poor fit].
With `Cc1nn(-c2ccccc2)c2c1C(C)N(C1CCCN(C(=O)C3CC3)C1)C2=O` (centres undefined) the Potency was “inactive”.
With `CN(C)c1ccc(CN2CC[C@H](c3nc4c(C(N)=O)cccc4[nH]3)C2)cc1` the Potency was active: 70.8 µM.
In the case of `CCc1ccccc1OCCN1CCN(c2ccc(C#N)cc2)C(=O)C1`, the Potency is reported as inconclusive: 50.1 µM [inhibitor, partial curve, poor fit].
In the case of `NC(=O)C1CCCN(Cc2ccc(-c3cnc4c(OCc5ccccc5)nccn34)cc2)C1` (centres undefined), the Potency is reported as active: 44.7 µM.
In the case of `COc1ccc(OC)c(CNC(=O)C2(c3ccc(NC(C)=O)cc3)CCCCC2)c1`, the Potency is reported as inconclusive: 89.1 µM [inhibitor, single point].
For `CN(C)C(=O)NC1CCCN(c2ccc3nnc(C4CC4)n3n2)C1` (centres undefined), the Potency was “inactive”.
In the case of `O=C(NCC1CCCCC1)c1ccc2nc(-c3cccnc3)oc2c1`, the Potency is reported as “inactive”.
In the case of `COCCN1CC(CO)C2(CCN(Cc3sccc3C)CC2)C1` (centres undefined), the Potency is reported as inconclusive: 56.2 µM [inhibitor, partial curve, poor fit].
For `CCOC(=O)C1CCN(C(=O)c2nc3sccn3c2-c2cccc(C#N)c2)CC1`, the Potency was “inactive”.
In the case of `COc1ccc(CCNC(=O)CNC(=O)c2ccc(-c3cnc4ccccc4c3)cc2)cc1`, the Potency is reported as “inactive”.
For `N#Cc1ccc(CN2CCn3c(nn(-c4ccc(F)cc4F)c3=O)C2)cc1`, the Potency was inconclusive: 25.1 µM [inhibitor, full curve].
For `CCOCCCNC(=O)N1[C@@H]2CC[C@H]1CC(NC(=O)c1ccc(F)cc1)C2` (some centres undefined), the Potency was “inactive”.
